Test results reported in publication PMC12136788.
The other results are listed elsewhere or left out.

T1: UNK ZnF1-3 (human, UniProt Q9C0B0 31-174)
T1 sequence: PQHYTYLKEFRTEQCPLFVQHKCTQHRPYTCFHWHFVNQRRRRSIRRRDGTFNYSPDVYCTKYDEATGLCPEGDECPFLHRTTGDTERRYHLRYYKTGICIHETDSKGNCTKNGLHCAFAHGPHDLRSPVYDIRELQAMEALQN

B1: chr1:115276673:115276674:-_ENSG00000009307_ENST00000339438|perfect_dup|FALSE|FALSE (ssRNA)
RNA: GGGAGUUCUACAGUCCGACGAUCUGUGAAUUCCACAUCAUCGCCAGGCUGUAAGGUUUCUAAGUCACCCUUAAAUUCACUAUAGUGAAAGAAUAUCUCUUUUACAACAUCACCUCUUUCAAUAAAGCCAAAUGCCUCCUUCAUCAACAGAGGAUUGAGCAUCA
B2: chr3:141904083:141904084:-_ENSMUSG00000028273_ENSMUST00000029941|mus_mus|motif|central (ssRNA)
RNA: GGGAGUUCUACAGUCCGACGAUCGCUUCCAUUUUGCAAUGUGGUAUCACCCUUGCUGUUCAUUGAUCUCCCAGUUCAUUACGGUCUGCAUAUAAUAUAAAUUCACUAGACCAUAGAUUAGCAGCUUUCAGGACAGAUGCCUUGCAACAGAGGAUUGAGCAUCA
B3: chr7:125262511:125262512:-_ENSMUSG00000030654_ENSMUST00000032888|mus_hu|FALSE|FALSE (ssRNA)
RNA: GGGAGUUCUACAGUCCGACGAUCGUAGAAGAAAUAAUACAGGAUUAAAACUGCAAAAGUAGUUAAUCAGUAGAAUAUGUAUGCACACAAAAAAUCCAGAUAGGAAGACAGGCUUAUUUACAAUGAAAGUAAGGUAAAAUUAACCAACAGAGGAUUGAGCAUCA
B4: chr16:8992458:8992459:-_ENSG00000187555_ENST00000381886|hu_mus|FALSE|FALSE (ssRNA)
RNA: GGGAGUUCUACAGUCCGACGAUCUUGUCUUGGCUUGAAGAAUUGUAGAAGAUCUCUUAAAGUACCUUCGUAAUUAUGCCUAAGAGGAUUACCGGGGCCGUCCCUAUAACCUUGAGACUUGAAAAACUGCAGCAGCAUGGGGUCCAACAGAGGAUUGAGCAUCA
B5: 12699133_12699253_60_3pUTR_ENSMUSG00000032625_ENSMUST00000046121|mouse|control|control (ssRNA)
RNA: GGGAGUUCUACAGUCCGACGAUCCGCCGCCGCCGCUGGCUGGCGGGGAUGCUGGCGGGGAUGCUGCCGCCGCUGCCAUGGCGCGCAGACUGGCAGGUCCUAGCGGCGAGGGACACAGCCGGCCGCAGGGGGCCCCAGCUGACACAACAGAGGAUUGAGCAUCA
B6: chr4:45007048:45007049:-_ENSMUSG00000049657_ENSMUST00000055028|mus_hu|motif|central (ssRNA)
RNA: GGGAGUUCUACAGUCCGACGAUCGUUCUGAUUUGCAGUAAAGUUAUUUCCUCUGCUCUUGUUAAGAAAAUUCGAAAUACGGAAAGUGGACUUAUGCUCUAGGUUAUUUGUGACUUCCAAAAUAUGGAUAUCACCUACCCUGUCCAACAGAGGAUUGAGCAUCA
B7: chr11:29606814:29606815:+_ENSMUSG00000020458_ENSMUST00000102843|mus_hu|FALSE|FALSE (ssRNA)
RNA: GGGAGUUCUACAGUCCGACGAUCCAAUUUAGUAAGAGCUGUAGGUAACUCUUGUUGAUUAUGAAGGAUGUUAUUACUAACUAACUUCUCUUCUUCAUCUUUAUUUUUCACGAUUAUUUCUUCCCUAGGAUUUGCUACUAUUACCAACAGAGGAUUGAGCAUCA
B8: chr1:220276048:220276049:+_ENSG00000067704_ENST00000302637|hu_hu|hu_hu_hu_mus_True|68_78 (ssRNA)
RNA: GGGAGUUCUACAGUCCGACGAUCGCAAAUUGCCUGGUUGGCGGGAAUUGUCCAAGGUUGUGUGGUCCAGACCAAAACGCUAACAGGGGAUGAGGCAUCUGUAAGAGACUCCAACUUCGGAGGAGGUCUCAGGAGGGGGAAUCUCAACAGAGGAUUGAGCAUCA
B9: chr2:168009442:168009443:-_ENSMUSG00000051149_ENSMUST00000088001|mus_mus|motif|central (ssRNA)
RNA: GGGAGUUCUACAGUCCGACGAUCGCGAUUACAGUAGAGGCAUUUGCUAGUAAAAUUGUGUAUUUUCAUAAUGUAGUUAGCGGCGGCUGGGACUUUCUCAGCUUUAUGCUCCUUUUCGAAGUGAACGCUAUAGACAUUCUCAGGCAACAGAGGAUUGAGCAUCA
B10: chr12:49579495:49579496:-_ENSG00000167552_ENST00000550767|hu_mus|FALSE|FALSE (ssRNA)
RNA: GGGAGUUCUACAGUCCGACGAUCGGCCCCAUCAAAUCUGAGGGAAGCAGUGAUGGAAGACACAAUUUGACCUAUCAACCUGUUUAGGUUAGUGUAGGUUGGGCGCUCAAUGUCGAGGUUUCUACGACAGAUAUCAUAGAUGGCCAACAGAGGAUUGAGCAUCA
B11: chr9:95013113:95013114:-_ENSG00000196305_ENST00000443024|hu_hu|hu_hu_hu_mus_False|8_8 (ssRNA)
RNA: GGGAGUUCUACAGUCCGACGAUCCUCAGUCAGAAAGGGCGUGUAAGGGGCCAUCAGUCUGCACAGAGAAAGCAGGACACUGAACAGUGUCUCCAGAGCCAUGACACAGUCUUCCACCCCACUCUCACCCUUUAAUCUCCUCCUCAACAGAGGAUUGAGCAUCA
B12: chr9:58049234:58049235:-_ENSMUSG00000051243_ENSMUST00000163200|mus_mus|motif|central (ssRNA)
RNA: GGGAGUUCUACAGUCCGACGAUCGCUGUGGCGGUGGGGAGAAAGGGGGAGUGCAUUGAAAGAACUCCCCUUGGCCCCAAAGUCCGGCUUCAAUUUUUUUCUUUCCUUAUCUGUUCGCCCUACUUCUCCAGGAUUGCAGGUUUGCAACAGAGGAUUGAGCAUCA
B13: chr9:110451384:110451385:+_ENSMUSG00000044791_ENSMUST00000153838|mus_hu|motif|central (ssRNA)
RNA: GGGAGUUCUACAGUCCGACGAUCAGGAUUUUUAUUAAUCAUUCUUAAUUCACUACCUUUUGAACAAGGUGUCUGUAAACGGAAAGAAUGAGACUGUUUGAUUUCUUCAUUUAAUUCUGUACAACAGAAAGAAUUUUUAAAUUUCAACAGAGGAUUGAGCAUCA
B14: chr14:102378876:102378877:+_ENSG00000078304_ENST00000445439|hu_hu|FALSE|FALSE (ssRNA)
RNA: GGGAGUUCUACAGUCCGACGAUCAGACAUUUUCAUAUACAACGUUAGUGAAAUCGAGACCCCCCCCAUGGUGAAGACAUAUAUUCCUAUCUUAUAAAAACAUUCAAGUAACCCUGGGCGUUUUCAUGUUAUUCUCUUUUUUAGCAACAGAGGAUUGAGCAUCA
B15: chr11:87794392:87794393:-_ENSMUSG00000020483_ENSMUST00000020775|mus_mus|motif|central (ssRNA)
RNA: GGGAGUUCUACAGUCCGACGAUCCACACCCACCCCUGCCCCAAGCCAUAGUCACAGUUCUGUGGAAUAUUCUCCCCGGUACGGGAGCCACCACCCCCCCCCCCACCUUCCUGCCCCUCUCCUUGCCAAUCCUAACCCUGUCCUCAACAGAGGAUUGAGCAUCA
B16: chr1:66480114:66480115:+_ENSMUSG00000015222_ENSMUST00000024639|mus_hu|mus_mus_mus_hu_True|28_48 (ssRNA)
RNA: GGGAGUUCUACAGUCCGACGAUCUGGCCUGUGGCGGAUGUUCUUCAGAGAGCCACAUUUGGAUGUCACAUGGCUUAGGUCUAUUUUCUUAGUAACAAUUUGUACCUGACCCCCCUUAGGCUGGUAUUUGAUGUUGUCUGUUGACAACAGAGGAUUGAGCAUCA
B17: 122743579_122743699_679_CDS_ENSG00000145386_ENST00000274026|human|control|control (ssRNA)
RNA: GGGAGUUCUACAGUCCGACGAUCAUCAAGAGGGACCAAUGGUUUUCUGGGUCCAGGUAAACUAAUGGCUGAAUUAAAAGCCAGGGCAUCUUCACGCUCUAUUUUUUGAGAUUCAGCUGGCUUCUUCUGAGCUUCUUUUUCUGCCAACAGAGGAUUGAGCAUCA
B18: 37202829_37203424_4297_CDS_ENSG00000170471_ENST00000397040|human|control|control (ssRNA)
RNA: GGGAGUUCUACAGUCCGACGAUCCAGAAAGCCAAGAGCUCGCCUGCUGACAAUCAUCCCAUCCACAAGAGGGAUGACCAUAUUAAAUUUUCCAGUGGCUCCUUGAAUUUUUAUCCGGAAUAAUCCAGUGUUUAAAGGGUGGAUCAACAGAGGAUUGAGCAUCA
B19: 24278311_24279896_614_3pUTR_ENSMUSG00000043067_ENSMUST00000142064|mouse|control|control (ssRNA)
RNA: GGGAGUUCUACAGUCCGACGAUCCCUCACAGCUCUCAAUCGGACUGAGUCCUUCUCCUCGGGUAACUGUCCAGCAGAUCUUGGUUUGAAUACCAAUCAAAUCCAUUAUUUUGGUAUAAAUCCGGUACCAGCUGGCUAAGAUCACAACAGAGGAUUGAGCAUCA
B20: 29179531_29182094_736_3pUTR_ENSG00000159873_ENST00000249064|human|control|control (ssRNA)
RNA: GGGAGUUCUACAGUCCGACGAUCUCCAUGGAAGGACGGCUCAUAGACUCAAUCAUUUUCUUUGUAAAAACUUCAUCAAAUUCCCUCUUCAAACCUGUUUUCAUGGUAUCAGAAAGGACAAGACUGGGGAGAUGGUUAACAUUUCAACAGAGGAUUGAGCAUCA
B21: chr14:76904430:76904431:+_ENSMUSG00000022010_ENSMUST00000022587|mus_mus|mus_mus_mus_hu_True|38_58 (ssRNA)
RNA: GGGAGUUCUACAGUCCGACGAUCUGCAGCCAAAAACACCCUCGUGGAAAAAAAGAGGGAACACCAGCAGCCUUGUACAAACUAGAUAAAAUCUUCUAGCUGUCUGCAGCCCAGGGAGAAACAGAAAACGGCAGCCCUAAUUUACAACAGAGGAUUGAGCAUCA
B22: chr13:90237973:90237974:+_ENSMUSG00000012422_ENSMUST00000161568|mus_hu|FALSE|FALSE (ssRNA)
RNA: GGGAGUUCUACAGUCCGACGAUCAAGCACAGGUACAUAUAAGCAGCAAGAUUACAGUCAAUAGACUCUGAAAAUUGAAAAUGGCAGACAUAGCGAGGCCGGCGAUGCCGCAGCCACAUCACCCUUCCGGGGCUCAGGCGGAAGCAACAGAGGAUUGAGCAUCA

Biological target: T1, UNK ZnF1-3
Experiment: nsRBNS (natural sequence RNA bind-n-seq); RBNS binding buffer (assumed for nsRBNS): 25 mM Tris pH 7.5, 150 mM KCl, 3 mM MgCl2, 0.01% Triton X-100, 500 ug/ml BSA, 20 U/ml SUPERase-In, 4 C; UNK is unkempt and MSI1 is Musashi-1; names of the RNAs are library labels; protein concentration not given here; high values mean tight binding

Binder	binding signal
B1	1.29 enrichment R
B2	1.14 enrichment R
B3	1.83 enrichment R
B4	1.67 enrichment R
B5	0.729 enrichment R
B6	1.02 enrichment R
B7	0.51 enrichment R
B8	1.35 enrichment R
B9	0.826 enrichment R
B10	1.2 enrichment R
B11	1.19 enrichment R
B12	1.13 enrichment R
B13	0.905 enrichment R
B14	1.08 enrichment R
B15	2.31 enrichment R
B16	0.616 enrichment R
B17	0.667 enrichment R
B18	1.11 enrichment R
B19	1.11 enrichment R
B20	1.3 enrichment R
B21	2.89 enrichment R
B22	1.37 enrichment R
